# Publication PMC4336329 (PLoS ONE, 2015)
# Out of some 310,000 compounds screened, about 14,000 (4.5%) showed an effect of 50% or more. Effects have a minus sign here. This is one part of the list.
# Molecular target: human ether-à-go-go-related gene (hERG) potassium channel (human, UniProt Q12809)
# Experiment: primary screen, population patch clamp on CHO cells stably expressing hERG
# 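Also: peak tail current of the secondary pulse compared with the same well before compound.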
# Chain of human ether-à-go-go-related gene (hERG) potassium channel (Q12809 whole entry, looked up): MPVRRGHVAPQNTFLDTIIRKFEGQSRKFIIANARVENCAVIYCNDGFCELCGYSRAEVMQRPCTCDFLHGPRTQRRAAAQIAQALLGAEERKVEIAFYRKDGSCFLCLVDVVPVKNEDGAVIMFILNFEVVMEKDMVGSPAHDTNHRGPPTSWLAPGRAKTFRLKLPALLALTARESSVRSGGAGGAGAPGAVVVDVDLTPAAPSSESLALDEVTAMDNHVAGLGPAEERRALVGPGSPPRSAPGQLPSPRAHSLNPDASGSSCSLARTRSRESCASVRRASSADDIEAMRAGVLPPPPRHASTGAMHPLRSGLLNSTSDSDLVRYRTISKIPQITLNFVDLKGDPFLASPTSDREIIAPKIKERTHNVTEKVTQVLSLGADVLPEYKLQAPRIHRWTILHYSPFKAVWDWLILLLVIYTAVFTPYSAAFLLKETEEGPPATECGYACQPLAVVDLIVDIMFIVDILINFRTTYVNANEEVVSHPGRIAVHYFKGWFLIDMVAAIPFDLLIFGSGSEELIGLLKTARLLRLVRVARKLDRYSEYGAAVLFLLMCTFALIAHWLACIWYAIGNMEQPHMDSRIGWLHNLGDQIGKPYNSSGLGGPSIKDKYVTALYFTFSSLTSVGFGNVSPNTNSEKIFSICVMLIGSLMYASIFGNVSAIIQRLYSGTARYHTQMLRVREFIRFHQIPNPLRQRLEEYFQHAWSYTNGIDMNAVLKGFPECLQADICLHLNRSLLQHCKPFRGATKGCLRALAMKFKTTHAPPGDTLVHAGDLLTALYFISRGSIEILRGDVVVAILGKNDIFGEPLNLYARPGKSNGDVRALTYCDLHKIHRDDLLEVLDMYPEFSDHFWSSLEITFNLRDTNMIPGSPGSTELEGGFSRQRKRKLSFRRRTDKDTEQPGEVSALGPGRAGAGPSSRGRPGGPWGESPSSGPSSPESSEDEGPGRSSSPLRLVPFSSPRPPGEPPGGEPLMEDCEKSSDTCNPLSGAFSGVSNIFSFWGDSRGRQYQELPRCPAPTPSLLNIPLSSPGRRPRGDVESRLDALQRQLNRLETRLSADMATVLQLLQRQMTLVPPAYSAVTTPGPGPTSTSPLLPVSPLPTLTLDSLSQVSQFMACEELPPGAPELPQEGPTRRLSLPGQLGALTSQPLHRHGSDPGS
row,Structure (SMILES),"hERG current change (%, negative = inhibition) at 10uM [%]"
1,Cc1nc2ccccc2c(=O)[nH]1,3.94
2,O=C1NCCN/C1=C\C(=O)c1ccc(Cl)cc1,-1.74
3,CC(=O)C(C)n1c(CN(C)Cc2ccccc2)nc2c1c(=O)n(C)c(=O)n2C (stereo not shown),-5.4
4,O=C(COC(=O)c1c(F)cccc1F)NCCNC(=O)COC(=O)c1c(F)cccc1F,-10.9
5,O=C(O)c1cccnc1SCc1cccc(Br)c1,17.6
6,C=CCn1c(SCc2cc(=O)n3ccsc3n2)nnc1C1CCCCC1,-11.7
7,Cc1cc(Nc2ncc(Cl)cc2Cl)n(-c2ccccc2)n1,-6.29
8,CC1CN(C(=O)c2cccc(S(=O)(=O)N3CCN(c4ccc(F)cc4)CC3)c2)CC(C)O1 (stereo not shown),-45.4
9,Cc1sc(NC(=O)c2oc3ccccc3c2C)c(C#N)c1C,0.66
10,O=C(NNS(=O)(=O)c1ccc(C(=O)NC2CCCC2)cc1)c1ccncc1,19.1
11,Cc1cc(C)c(C)c(S(=O)(=O)NNC(=O)c2cccc(S(=O)(=O)N3CCOCC3)c2)c1C,14.2
12,CC(C)(C)NC(=O)CN(Cc1cccs1)C(=O)CNS(=O)(=O)c1ccc(F)cc1,3.35
13,Cc1cccc(NC(=O)c2cccc3c2-c2ccccc2C3=O)n1,-26.6
14,CN(Cc1ccccc1)C(=O)c1ccccc1NC(=O)C1=CSCCO1,0.439
15,O=C1CC2(CCCCC2)Oc2ccc(F)cc21,-4.03
16,CCCCOCCCNC(=O)Cc1ccccc1OC,12
17,CCc1nc(SCC(=O)Nc2cc(C)on2)c2c(C)c(C)sc2n1,1.38
18,C=CCNc1nc(Cl)nc(NC2CCCCC2)n1,12
19,O=c1[nH]c(=O)c2nnc(N/N=C\c3ccc(O)cc3)nc2[nH]1,18.9
20,CN1CCCN(C(=O)c2cc3c(s2)CCCC3)CC1,-17.2
21,Cn1cc(S(=O)(=O)NC2CCCCCC2)c(=O)n(C)c1=O,11.9
22,COc1cccc(NS(=O)(=O)c2ccc3[nH]cc(C(=O)NCCN4CCOCC4)c(=O)c3c2)c1,8.37

row,Structure (SMILES),"hERG current change (%, negative = inhibition) at 10uM [%]"
1,O=C(CCNS(=O)(=O)c1c(Cl)cccc1Cl)OCC(=O)c1ccccc1F,6.94
2,COC(=O)C1=C(c2ccc(OC(F)(F)F)cc2)C[C@@H]2CC[C@H]1N2C(=O)NC(C)C,-18.3
3,O=C1CS/C(=N/N=C/c2ccc(OS(=O)(=O)c3ccccc3)cc2)N1,14.7
4,Cc1ccccc1-c1nc(CS(=O)CC(=O)NCc2ccc3c(c2)OCO3)c(C)o1 (stereo not shown),-27.8
5,Cc1ccc(C(=O)N2CCN(c3cnn(C)c(=O)c3Cl)CC2)cc1,-31.1
6,CN1C(=O)C(=Cc2ccc(Sc3ccccc3)o2)C(=O)N(C)C1=O,16.2
7,COc1cccc(C2=NOC(C(=O)Nc3ccc4c(c3)OCO4)C2)c1 (stereo not shown),10.1
8,O=C(Cn1ccc2ccccc2c1=O)NCC(=O)N1CCN(c2ccc(F)cc2)CC1,-4.91
9,O=C(O)C1CCCCC1C(=O)Nc1ccc(Cl)cc1 (stereo not shown),0.877
10,CCN(CC)S(=O)(=O)c1ccc(N2CCCCC2)c(NC(=O)C2=COCCO2)c1,-12.4
11,COc1cc(C2C(C#N)=C(C)NC(C)=C2C#N)cc(OC)c1OC,16.8
12,Cc1cccc(Cc2nnc(CCC(=O)N3CCCC(CN4CCOCC4)C3)o2)c1 (stereo not shown),12
13,Cc1ccc(CCNS(=O)(=O)c2cc3c(cc2C)NC(=O)CO3)cc1,-28.8
14,CCCCC(CC)CNC(=O)Cn1c(=O)[nH]c2ccsc2c1=O (stereo not shown),-8.15
15,COc1ccc(S(=O)(=O)Nc2cc(C)ccc2OC)cc1C,-1.8
16,O=C(Nc1ccc(N2CCN(Cc3ccccc3F)CC2)cc1)c1ccc([N+](=O)[O-])o1,6.55
17,Cc1ccccc1C(=O)Nc1nc(=S)ss1,13.5
18,c1ccc(C2Nc3ccccc3C3OCCCC23)cc1 (stereo not shown),6.43
19,Cc1ccc(N2C(=O)NC(=O)/C(=C\c3cn(CC(=O)O)c4ccccc34)C2=O)cc1,16.8
20,COC(=O)c1c(NC(NC(=O)C(C)(C)C)C(Cl)(Cl)Cl)sc2c1CCC2 (stereo not shown),25.9
21,CN1CCCC(OC(=O)c2cccc(Br)c2)C1.Cl (stereo not shown),-3.12
22,COc1ccc(Nc2ncnc3ccc([N+](=O)[O-])cc23)c(OC)c1,-0.867

row,Structure (SMILES),"hERG current change (%, negative = inhibition) at 10uM [%]"
1,COc1ccccc1-c1c(-c2ccc(OCC(=O)NN)cc2O)n[nH]c1C(F)(F)F,2.58
2,O=S(=O)(c1ccc(Cl)cc1)N1CCN(C2CCN(Cc3ccccc3)CC2)CC1,-71.4
3,COc1ccc2c(c1)CCc1cc(C(=O)N3CCN(c4ccc(N5CCOCC5)nn4)CC3)sc1-2,-17.2
4,CC(=O)c1ccccc1OC(=O)CCN1C(=O)c2ccccc2C1=O,12.3
5,CCNc1nc(NC(C)C)nc(Oc2ccc(/C=N/O)cc2)n1,4.97
6,CC1Sc2ccc(S(=O)(=O)N(C)Cc3ccccc3)cc2NC1=O (stereo not shown),-9.27
7,O=S(=O)(NCC1(N2CCOCC2)CCCCC1)c1ccc(F)c(F)c1F,-7.48
8,CCOc1cc(C(c2c(C)[nH][nH]c2=O)c2c(C)[nH][nH]c2=O)ccc1OCc1ccc([N+](=O)[O-])cc1,1.68
9,COc1ccc(/C=C(\NC(=O)c2ccccc2)C(=O)NCCN2CCOCC2)cc1OC,23
10,COC(=O)c1cccc(C23CC4(C2)[C@H](CN(Cc2ccc(C(F)(F)F)cc2)[C@@H]4c2ccccc2)C3c2ccccc2)c1 (stereo partly shown),-13.5
11,O=C1C(NS(=O)(=O)c2cccs2)=C(N2CCN(c3cccc(C(F)(F)F)c3)CC2)C(=O)c2ccccc21,-4.83
12,O=[N+]([O-])/C=C1/CCCCCN1,19
13,CCOC(=S)SCC(=O)N1CCc2cc(OC)c(OC)cc2C1C1C(=O)CC(C)(C)CC1=O (stereo not shown),1.02
14,COc1ccc(N(CCC(=O)NCCc2ccccc2)S(=O)(=O)c2ccc(C)cc2C)cc1,-28.2
15,c1ccc2cc(OCc3nc4ccccc4[nH]3)ccc2c1,-1.83
16,CCOc1ccc(COC(=O)C2CC(=O)N(CCc3ccccc3)C2)cc1OC (stereo not shown),-21.6
17,Cc1ccc(NC(=O)CN(C)C(=O)COC(=O)COc2ccc(C#N)cc2)cc1,-24.2
18,Cc1cc(N2C(=O)NC(=O)CC2C)c(C)cc1C(C)C (stereo not shown),-0.172
19,CC(C)Cc1cc(CNC(=O)C2CCC(=O)N(Cc3cccc(C(F)(F)F)c3)C2)on1 (stereo not shown),3.35
20,COc1ccc(/C(N)=N/OC(=O)Cc2ccc(C)cc2)cc1,9.68
21,CC(C)(C)c1ccc(C(=O)N2CCN(C(=O)c3ccco3)CC2)cc1,0.705
22,O=c1[nH]c2sc3c(c2c(=O)n1Cc1ccccc1)CCC3,-3

row,Structure (SMILES),"hERG current change (%, negative = inhibition) at 10uM [%]"
1,COC(=O)c1cc2c(=O)c3ccccc3oc2nc1C,15
2,O=C(O)c1ccccc1C(=O)N1CCN(c2cccc(Cl)c2)CC1,11.1
3,CCN(CC)CCNC(=O)c1cc(Sc2nnc(C)s2)nc2ccccc12,-45.3
4,COc1ccc(CCNC(=O)c2cc(=O)[nH]c3ccccc23)cc1,21.4
5,Cc1cc(C(C)(C)C)cc(C)c1COC(=O)C1CCC(=O)N1 (stereo not shown),-7.15
6,Clc1ccc(CSc2nnc(-c3ccncc3)s2)cc1,14.1
7,CCCSc1nc2sc3c(c2c(=O)n1CC)CC(C)(C)OC3,3.41
8,COC(=O)c1nnn(-c2nonc2N)c1CSc1nc2ccccc2o1,-4.78
9,COc1ccc(C(=O)N(C)Cc2ccon2)cc1OC1CCN(C(C)C)CC1,7.6
10,CCCN1C(=O)C(O)(c2c(C)[nH]c3ccccc23)c2ccccc21 (stereo not shown),4.55
11,COc1cccc(C(=O)Nc2nc(-c3ccc4c(c3)OCO4)cs2)c1,6.23
12,Cc1ccc(S(=O)(=O)/N=C(/Nc2c(C)n(C)n(-c3ccccc3)c2=O)c2ccc(Cl)cc2)cc1,-57
13,O=C(CCN1C(=O)C2CC=C(Cl)CC2C1=O)N1CCCCC1 (stereo not shown),12.9
14,O=C(O)c1sccc1Oc1ccc(NS(=O)(=O)c2ccc(Cl)cc2)cc1,15.6
15,CCN(Cc1ccncc1)C(=O)c1ccco1,-73.5
16,Cc1ccc(S(=O)(=O)c2cc3c(=O)n4ccccc4nc3n(CC3CCCO3)c2=N)cc1C (stereo not shown),-50.8
17,CN1CCc2c(sc3c2C(=O)NC(/C=C/c2ccco2)N3)C1 (stereo not shown),-27.4
18,CCc1cc(SC#N)cc(C)c1NC(=O)CCl,26.4
19,CC(C)(C)NC(=O)C1CCN(S(=O)(=O)c2cccc(C(F)(F)F)c2)CC1,-4.16
20,Cc1ccc(CNC(=O)N[C@@H](Cc2ccccc2)C(=O)O)cc1,2.8
21,Cc1ccccc1C(=NCCCN(C)C)c1ccccc1C.Cl,-21.7
22,COc1ccc(Cl)cc1NCCC(O)c1ccc(F)cc1 (stereo not shown),-0.849
